# Values marked as one replicate rest on one cluster of the flow cell; about a third of the high ones do not repeat.
# System: ATP
# Assay: switch fluorescence ratio, 500 uM ATP over buffer (Cy3 cluster intensity, sum of 5 cycles each) (fold (ratio)); higher = stronger signal-on switching upon ATP binding; sequences stand for … in TCGTCGGCAGCGTCAGATGTGTATAAGAGACAGTTTTTTTTTTTTTTTTTTTTTTTTT…TC
# Details: aptamer strand: ATP DNA aptamer (quencher-CACCTGGGGGAGTATTGCGGAGGAAGG + anchor), 100 nM annealed; ATP concentration: 500 uM; one replicate
# Outline: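 Clusters carrying Cy3-labelled switching strands on a modified Illumina MiSeq flow-cell were annealed to 100 nM quencher-labelled ATP aptamer and imaged in selection buffer. They were imaged again after 15 min with 500 uM ATP at 22 °C, over five buffer/ATP cycles with NaOH stripping and re-annealing in between. For each cluster, the fluorescence ratio is the summed Cy3 intensity of the target cycles divided by that of the buffer cycles, averaged per switch-domain sequence. Clusters outside 100-1000 RFU were left out.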
# 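Also: ATP exposure 15 min at 22 °C before imaging.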
row,Sequence,switch fluorescence ratio
1,GGGATTAGGT,1.02
2,TGAAACGTAG,1.03
3,AAAAAACGCG,0.96
4,GTTTCCAGAT,0.982
5,ATTCCGGGAT,1
6,TCTGGCAGGG,0.991
7,CCCTCCCCAC,3.41
8,ACGCGTGGCT,1.05
9,CAAGGTGTTT,1.01
10,AGGGCACTCC,1.65
11,AATGTTCCGC,1.42
12,GAACTAGAGG,0.993
13,CCCGGAGTAG,2.07
14,GGGTACGTAA,1.03
15,GCCAGGATCT,0.989
16,TTTTGTCACA,1.07
17,GCGAAGTAGC,1.07
18,GGTTAATGTA,0.922
19,TTGAATATTG,0.969
20,TAAGTCAGGC,0.99
21,GCTGGGTTGT,0.989
22,GTCATCCATT,1.04
23,TGTACGAGGA,1
24,CGGTGAGACG,1.05
25,TTCAACGCTG,1.13
26,TCGGTTAAGG,0.959

row,Sequence,switch fluorescence ratio
1,ATTCATGGTC,1.04
2,CCCGTTTCTG,1.05
3,CAAAAAGCAG,1.02
4,GGGATTAGTA,1.02
5,GTACCGGGTA,1
6,AAAAATTAA,0.994
7,TCCCGGGGTC,1.31
8,CGTAATCGCC,1.14
9,CGGGGTGACT,0.971
10,CACGTGTAGG,1.04
11,AGAGGGGGT,0.974
12,AAACCTGCA,2.7
13,GGGTCCAGGT,1.11
14,TTATGATA,1.01
15,AGCCAGCGAG,1.03
16,CTTGTGAGCA,1.06
17,TAAAGCAACA,1.03
18,CGCCTAGGGC,1.01
19,CTATCGGCTC,0.976
20,TGATCTGGCC,0.988
21,AATTTAGAAT,1.03
22,AGTAGATTAC,1.01
23,TTAACATACT,1.32
24,CAGCACTTCG,0.991
25,CCTCTTCGCC,2.23
26,TATCTGCGCT,1.04

row,Sequence,switch fluorescence ratio
1,GGTCCGGCCG,0.993
2,GAAGTCATTC,0.984
3,ACATTGTAG,1.01
4,CTCAAACGGC,1.22
5,TATATGCTTG,1.02
6,TTTATACAG,1
7,CAGTCTACCA,1.04
8,AGACGACATA,1.1
9,CTTGGTACT,1.07
10,ACGTTTGGAA,0.997
11,AAGTGACTCG,1.08
12,TTGGAATATG,0.995
13,CCGTATTGCT,1.28
14,AAGGGACAGA,0.97
15,GGAAATGAGG,0.971
16,AGAAGATCCG,0.943
17,CCAGCCCGGA,1
18,TGGTTAGCGC,0.993
19,ACTAGCAAAG,1.04
20,GGGAGTCGCG,0.982
21,CGAAATACCG,1.06
22,ACTTAGAATG,1.08
23,AGAATACATC,1.04
24,GTGCTTTTTA,1.1
25,GTGCCAGGGG,0.947
26,GCCAGTTGAG,0.987

row,Sequence,switch fluorescence ratio
1,GGCTGGTCCT,0.983
2,CATGGTGACA,0.98
3,TGGCGTCACT,1.01
4,GCGCATCTTA,0.999
5,CCGGACTGTG,0.996
6,CGTCGGGTA,0.996
7,ATACATACCG,1.27
8,GCAGGTCATA,1.01
9,TCTCGACTGT,0.998
10,GGTAGCTTTC,1.12
11,TCTTGACATA,1.03
12,GTCCGAGAGT,1.04
13,TGAGATCGAC,0.966
14,ACAGGCTTTG,0.98
15,TATTCCAATT,0.99
16,TTCCCTACGC,2.41
17,GTTTGAGAGT,0.989
18,GATTACCGA,1.03
19,GAGGCAAGTA,1.23
20,CGGTCAAGAA,0.986
21,CAACACGTAA,1.32
22,TGGGTTAAAC,0.952
23,TCGACGGTGG,1.02
24,TTAGAGAGTT,1
25,CGCTTGAAAC,1.1
26,TAGGGACCCC,1.03

row,Sequence,switch fluorescence ratio
1,AGTCTTAGGA,0.996
2,CACCCTTTAT,0.968
3,GTGGCAAATG,1
4,GGTGAGCCCT,0.993
5,CTTTGGAGAT,0.976
6,ACATGGATA,0.989
7,TAAGTTCTTG,0.989
8,GCCGCCAGAT,1.08
9,GCGACAATCG,1.04
10,ACGATACTT,1.53
11,ACTCATCTAT,1.02
12,TTCTCAGTGC,1.52
13,GGGAGCCAGG,0.997
14,GTAGGGCCGA,1.02
15,GCTGAACCGA,1.05
16,AGGATATCAT,0.98
17,ATACTTGTCT,0.989
18,GGTTGCATCT,1.01
19,ATCCGATTCC,1.12
20,GAGCGGGGTC,0.924
21,CGTTGGCTGC,1.03
22,AAAGACACCG,0.956
23,TTACCAGGGA,1.16
24,AGCAATTTAG,1.28
25,GGGAGTGCCC,1.24
26,GATGTTAGGC,0.962

row,Sequence,switch fluorescence ratio
1,AATGCAAACG,1.07
2,ATTCCTTATG,1.01
3,TATCTTCTTC,1.05
4,TGGATCCCCG,0.976
5,GTGTGTATC,1.03
6,GGGCAATTCG,1.13
7,GACTTCAGC,0.993
8,GGTACAAAGG,0.996
9,CTACGACAGG,1.5
10,ACGATAGAGT,1.04
11,ATCCCGATCA,0.993
12,TGCTCTTGTT,1.03
13,TCCATTGGTC,1.08
14,TAGGCGGCTT,1
15,GCGCTTGGCT,0.978
16,AACAGCAACC,1.53
17,GCTGCACAA,1.08
18,AACTCCCTTA,1.1
19,GAGATATGGC,0.993
20,ACTAATGGGG,0.962
21,TCCCGGCCGT,0.97
22,CTTGCATATA,1.22
23,CGTGAATGGG,1.17
24,AGTACAGTGG,0.988
25,CAGGTGTTT,1.94
26,ACTGAGCCGA,1.06

row,Sequence,switch fluorescence ratio
1,TGAGGCCCTC,1.03
2,AGGATCTGTA,0.916
3,TAGTGGGACC,0.989
4,TCCACATGAT,0.996
5,GCGCTTCCTA,1.08
6,GACACAATTC,3.05
7,TAGCTCTGGG,0.99
8,TAGTCTATCT,1.01
9,TATTTATGAG,1.01
10,GGGTGAGGG,1.03
11,GCGGGCTTAT,0.975
12,GATGTCAATA,1.05
13,GATGGTGCCG,0.997
14,GTGGATCCTC,1.02
15,CATTACGAGC,1.16
16,GGGATGCGTA,1.04
17,GTGGGTTTTG,0.987
18,AGGGAGTGCG,0.976
19,TAACAAGTTT,1.01
20,GTAGTCGCCT,0.981
21,CCGTACGC,4.58
22,CAGCAATTTC,3.43
23,ACAGGCGCC,1
24,ACGCGGCTAA,1.04
25,AACGCGGTCT,1.01
26,ATAATGGATG,1.05

row,Sequence,switch fluorescence ratio
1,CGAGCGGTGG,1.06
2,GCGAAAGAGG,1.01
3,TGATTTCCTT,1.03
4,GTTTTTCTGA,1
5,GAAATTGGCG,1.04
6,ACATGCGAGG,0.997
7,GCGAGGGGG,0.942
8,GATGTCGGGA,0.99
9,TGATGAGGTA,1.32
10,ATTGAGCCCT,1.01
11,CATCCGGAAG,2.68
12,CGAGAAGCGC,1.06
13,TGAATGAAGT,1.11
14,GTTCCTCTAG,1.19
15,CTCGACCTTC,1.79
16,AACATAACGC,1.11
17,GTTTTTGCC,1.09
18,ACTTACCTAT,1.17
19,AGGCGTATGG,0.976

# From the supplement of paper PMC10126150
